{"source": "PubChem BioAssay AID686979", "about": "(National Center for Advancing Translational Sciences (NCATS), 2013)", "note": "Where “and” joins values, the source holds several entries; their conditions need not be identical. Equal values may be shown once. The whole screen tested about 420,000 compounds, of which about 50,000 (12%) were called active. This list was built around the results that the source calls inconclusive (neither active nor inactive); the mix of calls is not that of the screen. Calls follow the shape of the dose curve; as a rule, active = well fitted inhibition curve with a large enough effect; inconclusive = small, poorly fitted or top-dose-only effect; inactive = flat fitted curve, though single readings scatter. A potency beside an inconclusive call is a rough fit, not a confirmed value. % is scaled to controls: 0 for no effect and ±100 for the full control effect; potency is read from the fitted curve at half-maximal effect; tags tell the direction and shape of the fitted curve."}
{"test": "qHTS for Inhibitors of human tyrosyl-DNA phosphodiesterase 1 (TDP1): qHTS in cells in presence of CPT; also: nearly all actives have a fitted effect of over 55% in size", "settings": "chicken DT40 Tdp1-/-;hTDP1 cells + 20 nM CPT, ATP luminescence, 48 h; activity change, negative = growth inhibition: at 46.2 µM (top of the series) unless noted", "summary_of_the_method": "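Chicken DT40 Tdp1-/- cells stably complemented with human TDP1 were seeded at 400 cells/well in medium containing 20 nM camptothecin, exposed to pin-transferred compounds, and grown at 37 °C for at least 48 hr. Viability was read as ATP luminescence.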"}
{"smiles": "Cc1ccc2[nH]cc(C(=O)CN3CCN(c4ccccn4)CC3)c2c1", "Potency": "inconclusive: 20.6 µM [inhibitor, single point]"}
{"smiles": "CCOc1ccccc1Nc1ncnc2c1c(-c1ccccc1)cn2-c1ccc(OC)cc1", "Potency": "inconclusive: 18.4 µM [inhibitor, partial curve]"}
{"smiles": "Nc1ncnc2c1ncn2[C@@H]1O[C@H](COS(=O)(=O)O)[C@@H](O)[C@H]1O", "Potency": "inconclusive: 25.9 µM [inhibitor, single point]"}
{"smiles": "Cn1ccnc1SCC(=O)Nc1ccc(Oc2ccccc2)cc1", "Potency": "inconclusive: 29.1 µM [inhibitor, single point]"}
{"smiles": "O=[N+]([O-])c1ccc2c(c1)C(=NO)c1cc(F)ccc1-2", "Potency": "active: 16.4 µM"}
{"smiles": "Cc1ccc(OCC(=O)NNC(=O)c2ccccc2OCc2c(C)noc2C)cc1", "Potency": "inactive"}
{"smiles": "COc1cc(OC)cc(-c2cc3nc(C)c(CCC(=O)Nc4ccc(F)c(Cl)c4)c(C)n3n2)c1", "Potency": "active: 18.4 µM"}
{"smiles": "COc1cccc(CN2CCN(C(=O)Nc3ccc([N+](=O)[O-])cc3)CC2)c1", "activity change, negative = growth inhibition": "inconclusive: -37.7% [inhibitor]"}
{"smiles": "CCn1c(=NC(=O)CN2C(=O)CCC2=O)sc2c(C)cc(C)cc21", "Potency": "inconclusive: 25.9 µM [inhibitor, single point]"}
{"smiles": "CCCCc1nc2cc(C(=O)N3CCCC(OCCC)C3)ccc2o1", "note": "(stereo unspecified)", "Potency": "inconclusive: 29.1 µM [inhibitor, single point]"}
{"smiles": "F[Si-2](F)(F)(F)(F)F", "Potency": "inactive"}
{"smiles": "C[C@@]12CCC[C@@](C)(C(=O)O)C1CC[C@@]13C[C@@H](NCc4ccccc4)[C@@](C)(CCC12)C3", "note": "(stereo partly specified)", "Potency": "inconclusive: 29.1 µM [inhibitor, single point]"}
{"smiles": "COc1cccc(N2C(=O)CC(N3CCN(S(=O)(=O)c4ccccc4[N+](=O)[O-])CC3)C2=O)c1", "note": "(stereo unspecified)", "Potency": "inactive"}
{"smiles": "Cc1cc(C)cc(NC(=O)c2ncn(-c3ccccc3)n2)c1", "Potency": "inactive"}
{"smiles": "CCCNC(=O)C(Cc1ccc(Cl)cc1)NC(=O)c1ccc(C#N)cc1", "note": "(stereo unspecified)", "Potency": "inactive"}
{"smiles": "O=C(CSc1nc(-c2cccs2)cc(C(F)(F)F)n1)NCc1ccco1", "Potency": "inconclusive: 23.1 µM [inhibitor, single point]"}
{"smiles": "O=C(CSCc1cnn(-c2ccccc2)c1-n1cccc1)NCc1ccccc1Br", "Potency": "inconclusive: 23.1 µM [inhibitor, single point]"}
{"smiles": "O=C(CNS(=O)(=O)c1ccccc1)NCC(=O)OCc1ccccc1F", "Potency": "inactive"}
{"smiles": "Cc1ccc(C(=O)N(c2ccccc2)C2CC(C)N(C(=O)c3ccco3)c3ccccc32)cc1", "note": "(stereo unspecified)", "Potency": "active: 7.31 µM"}
{"smiles": "O=[N+]([O-])c1ccc2c(c1)nc1n2CCN(c2ccccc2)C1", "Potency": "inconclusive: 29.1 µM [inhibitor, single point]"}
{"smiles": "O=S(=O)(c1ccccc1)c1nc(-c2ccccc2)oc1N1CCN(c2cccc(Cl)c2)CC1", "Potency": "inconclusive: 10.3 µM [inhibitor, partial curve]"}
{"smiles": "CCOC(=O)c1c(C)[nH]c(C)c1S(=O)(=O)N1CCN(c2ccc(Cl)cc2)CC1", "Potency": "inconclusive: 10.3 µM [inhibitor, single point]"}
{"smiles": "CC1CC(C)(C)NC(=S)N1CCC(=O)Nc1ccc2c(c1)OCCO2", "note": "(stereo unspecified)", "Potency": "inconclusive: 23.1 µM [inhibitor, single point]"}
{"smiles": "O=C(OCc1ccccc1F)c1cnc(Cl)c(Cl)c1", "Potency": "inactive"}
{"smiles": "O=C(c1ccccc1)N1N=C(c2ccccc2)CC1c1cccs1", "note": "(stereo unspecified)", "Potency": "inactive"}
{"smiles": "COc1ccc(OC)c(S(=O)(=O)ON2C(=O)c3ccccc3C2=O)c1", "Potency": "active: 2.31 µM"}
{"smiles": "CSc1ccc(/C=N/N(C)S(=O)(=O)c2ccc(C)cc2)cc1", "activity change, negative = growth inhibition": "inconclusive: -31.7% [inhibitor]"}
{"smiles": "COc1ccc(Cc2nc3ccc(C(=O)NCCc4ccccc4)cc3o2)cc1", "Potency": "active: 25.9 µM"}
{"smiles": "CCOCCCNC(=O)c1cc2c(=O)[nH]c3ccccc3c2s1", "Potency": "inactive"}
{"smiles": "CN[C@@H]1[C@@H](O)[C@@H](O[C@@H]2[C@@H](O)[C@H](O[C@H]3O[C@H](CN)[C@@H](O)[C@H](O)[C@H]3O)[C@@H](N)C[C@H]2NC(=O)C(O)CN)OC[C@]1(C)O", "note": "(stereo partly specified)", "Potency": "inactive"}
{"smiles": "Cc1cc2n(n1)C(c1ccsc1)Nc1ccccc1-2", "note": "(stereo unspecified)", "Potency": "inconclusive: 29.1 µM [inhibitor, single point]"}
{"smiles": "CCOC(=O)C1(C)CCCN(C(=O)c2ccc(C#N)cc2)C1", "note": "(stereo unspecified)", "Potency": "inactive"}
{"smiles": "CCn1cc([N+](=O)[O-])c(C(=O)N2N=C(c3ccc4ccccc4c3)CC2c2cc(Br)ccc2O)n1", "note": "(stereo unspecified)", "Potency": "inconclusive: 23.1 µM [inhibitor, single point]"}
{"smiles": "COc1ccc(CNC(=O)c2ccc3c(c2)CCN3S(=O)(=O)c2ccc(Cl)cc2)cc1", "Potency": "inconclusive: 6.51 µM [inhibitor, partial curve]"}
{"smiles": "Cc1ccccc1CS(=O)(=O)c1snnc1C", "Potency": "inactive"}
{"smiles": "C=CCNc1nc(NCCCN2CCCC2=O)c2sc(-c3ccccc3)cc2n1", "Potency": "active: 18.4 µM"}
{"smiles": "COc1cccc(NC(=O)C2CCN(c3cc(C)nc4c(-c5ccc(Cl)cc5)c(C)nn34)CC2)c1", "Potency": "inactive"}
{"smiles": "COc1cc2ccnc(C=O)c2cc1OC", "Potency": "active: 4.61 µM"}
{"smiles": "CC(C)(C)c1ccc(-n2ncc3c2CCCC3NC(=O)CN2CCCCC2=O)cc1", "note": "(stereo unspecified)", "Potency": "active: 16.4 µM"}
{"smiles": "COc1cc2nc(SCC(=O)Nc3cccc(C)c3)n3nc(CCn4c(C)nc5ccccc54)nc3c2cc1OC", "Potency": "active: 2.59 µM"}
{"smiles": "O=C(/C=C/c1ccc(Cl)c([N+](=O)[O-])c1)Nc1ccc(NC(=O)c2ccco2)cc1", "Potency": "inactive"}
{"smiles": "CCOC(=O)c1ccc(-c2c(-c3ccc4c(c3)OCO4)noc2-c2ccsc2)cc1F", "Potency": "inconclusive: 35.5 µM [inhibitor, single point] and inconclusive: 16.4 µM [inhibitor, single point]"}
{"smiles": "CC(C)CCNC(=O)c1sc2ccc(S(=O)(=O)N3CCCCC3)cc2c1N", "Potency": "active: 23.1 µM"}
{"smiles": "CCOc1ccc(OCC)c(NS(=O)(=O)c2ccc3[nH]c(=O)ccc3c2)c1", "Potency": "inactive"}
{"smiles": "c1ccc(COc2ncnc3c2ncn3CCCNCCN2CCOCC2)cc1", "Potency": "inactive"}
{"smiles": "O=C(Nc1ccc(N2CCN(C(=O)c3ccco3)CC2)cc1)c1cccs1", "activity change, negative = growth inhibition": "inconclusive: -34.9% [inhibitor]"}
{"smiles": "CC(=O)Nc1ccc(S(=O)(=O)Nc2cccc(N(C)S(C)(=O)=O)c2)cc1", "Potency": "inconclusive: 8.2 µM [inhibitor, partial curve]"}
{"smiles": "CC(=O)c1ccc(NC(=O)N2CCCC(C(=O)c3ccc4c(c3)OCO4)C2)cc1", "note": "(stereo unspecified)", "Potency": "inconclusive: 25.9 µM [inhibitor, single point]"}
{"smiles": "O=C(Nc1ncccn1)c1ccc([N+](=O)[O-])cc1[N+](=O)[O-]", "Potency": "inconclusive: 13 µM [inhibitor, single point]"}
{"smiles": "COc1cc(/C=N/NC(=O)c2ccc(-n3cccc3)cc2)ccc1O", "Potency": "inconclusive: 14.6 µM [inhibitor, partial curve]"}
{"smiles": "COC(=O)C[C@H]1c2cc(C(F)(F)F)ccc2S(=O)(=O)N1C1CCCCC1", "Potency": "inconclusive: 28.2 µM [inhibitor, single point]"}
{"smiles": "Cc1cc(C)cc(NC(=O)Nc2ccc3c(c2)CCC3)c1", "Potency": "inconclusive: 29.1 µM [inhibitor, single point]"}
{"smiles": "C=CCCCCCCCCCCCc1ccco1", "Potency": "inconclusive: 29.1 µM [inhibitor, single point]"}
{"smiles": "CCN(CC)C(=O)c1sc(N2C(=O)Nc3ccccc3N2O)c(C(=O)OC)c1C", "Potency": "inactive"}
{"smiles": "Cc1ccc(NC(=O)CN(C)C(=O)CSc2ccc3c(c2)OCCO3)cc1", "Potency": "inactive"}
{"smiles": "C=C(C)c1nc(Oc2ccccc2)nc(Oc2ccccc2)n1", "Potency": "active: 7.31 µM"}
{"smiles": "COc1ccc([C@H]2Cc3cccc(O)c3C(=O)O2)cc1O", "activity change, negative = growth inhibition": "inconclusive: -26.4% [inhibitor]"}
{"smiles": "Cc1cc(N2CCN(C(=O)Oc3ccc([N+](=O)[O-])cc3)CC2)c2ccccc2n1", "Potency": "inconclusive: 29.1 µM [inhibitor, single point]"}
{"smiles": "Cc1ccc(NC(=O)c2ccc(N3C(=O)C4CC=C(Cl)CC4C3=O)cc2)cc1", "note": "(stereo unspecified)", "Potency": "inconclusive: 29.1 µM [inhibitor, single point]"}
{"smiles": "CCC1=C2CC[C@H]3C(=O)N(CC(=O)OC)C(=O)[C@H]3[C@H]2[C@@]2(C)C(=NCC(=O)OC)OC(=O)N2C1=O", "Potency": "inactive"}
{"smiles": "CNc1ccc(/C=C2\\CSc3ccccc3C2=O)cc1[N+](=O)[O-]", "Potency": "inconclusive: 23.1 µM [inhibitor, single point]"}
{"smiles": "Cc1ccc2[nH]c(=O)c3cc(C(=O)N4CCN(c5ccccc5F)CC4)sc3c2c1", "Potency": "inactive"}
{"smiles": "CCC1(c2ccc(Cl)cc2)NC(=S)N(c2ccc(C)cc2)N1", "note": "(stereo unspecified)", "Potency": "inconclusive: 29.1 µM [inhibitor, single point]"}
{"smiles": "CN(c1ccccc1)S(=O)(=O)c1cccc(NC(=O)Cn2cnc3ccccc3c2=O)c1", "Potency": "active: 20.6 µM"}
{"smiles": "Cc1onc(C(=O)N2CCC(Cc3ccccc3)CC2)c1[N+](=O)[O-]", "Potency": "inconclusive: 23.1 µM [inhibitor, partial curve]"}
{"smiles": "CC1(C(=O)Nc2ccc3c(c2)OCCO3)CCN1C(=O)C/C=C/c1ccccc1", "note": "(stereo unspecified)", "Potency": "active: 29.1 µM"}
{"smiles": "CCC(C)NC(=O)c1sc2nc(C)c(C(=O)Nc3ccc(C)cc3C)c(-c3ccc(Br)cc3)c2c1N", "note": "(stereo unspecified)", "Potency": "inconclusive: 4.61 µM [inhibitor, single point]"}
{"smiles": "CNC[C@@H]1OCc2ccccc2-c2ccccc2C(=O)N([C@@H](C)CO)C[C@@H]1C", "Potency": "inactive"}
{"smiles": "CCNS(=O)(=O)c1ccc(NC(=O)c2ccc(Cn3cc(Br)cn3)o2)cc1", "Potency": "inconclusive: 20.6 µM [inhibitor, single point]"}
{"smiles": "CCOC(=O)c1ccccc1NC(=O)COC(=O)c1ccc(OCC(=O)N2CCOCC2)c(OCC)c1", "Potency": "inconclusive: 23.1 µM [inhibitor, single point]"}
{"smiles": "CC(C)Sc1nnc2c3ccccc3n(C)c2n1", "Potency": "inconclusive: 31.6 µM [inhibitor, single point]"}
